This assay addresses hepatitis C virus RNA dependent polymerase (NS5B) (Hepacivirus hominis (Hepatitis C virus), UniProt P26663). Nature of the assay: Inhibition of NS5B RNA dependent RNA polymerase activity (SPA, UMP-[5,6 3H] incorporation).
Setting [1] is: IC50 μM, first compound table (printed title TABLE 10; Table 1).

A word on the IC50: it is the point on the concentration scale where inhibition reaches its midpoint.

For the setting “IC50 μM, Table 6”, `O=C(O)/C=C/c1ccc(O[C@H]2CCN(C(=O)c3ccc4c(c3)nc(-c3ccoc3)n4C3CCCCC3)C2)cc1` [Entry 6004] had an IC50 of 5 to 10 µM.
`CC(C)(CO)NC(=O)[C@H](Cc1c[nH]c2ccc(O)cc12)NC(=O)c1ccc2c(c1)nc(-c1ccoc1)n2C1CCCCC1` [Entry 13021, 1-Cyclohexyl-2-furan-3-yl-1H-benzimidazole-5-carboxylic Acid [(S)-1-(2-Hydroxy-1,1-dimethyl-ethylcarbamoyl)-2-(5-hydroxy-1H-indol-3-yl)-ethyl]-amide]: the IC50 (IC50, Table 13) was less than 1 µM.
Molecule `O=C(NC(Cc1c[nH]c2ccc(O)cc12)C(=O)O)c1ccc2c(c1)nc(C1CCOC1)n2C1CCCC1O` (stereo not shown) [Entry 8002] came in with an IC50 (IC50 μM, Table 8) of 5 to 10 µM.
On to `O=C(Nc1cccc(C(=O)O)c1)N[C@H]1CC[C@H](NC(=O)c2ccc3c(c2)nc(-c2ccoc2)n3C2CCCCC2)CC1` [Entry 1207], for which the 50% inhibitory concentration (IC50) under setting [1] fell in the range of 5 to 10 µM.
Regarding `Cc1cc(-c2nc3cc(C(=O)N[C@@H](Cc4c[nH]c5ccc(O)cc45)C(=O)O)ccc3n2C2CCCCC2)nn1C` [Entry 2125], under “IC50 μM, Table 2”, the IC50 was 5 to 10 µM.
As to `CN(C)c1cccc2c(S(=O)(=O)NCCNC(=O)COc3ccc(-c4nc5cc(C(=O)N[C@@H](Cc6c[nH]c7ccc(OCC(=O)O)cc67)C(=O)O)ccc5n4C4CCCCC4)cc3)cccc12` [Entry 2129, (S)-3-(5-Carboxymethoxy-1H-indol-3-yl)-2-({1-[1-cyclohexyl-2-(4-{[2-(5-dimethylamino-naphthalene-1-sulfonylamino)-ethylcarbamoyl]-methoxy}-phenyl)-1H-benzimidazol-5-yl]-methanoyl}-amino)-propionic Acid], the IC50 (IC50 μM, Table 2) is 1 to 5 µM.
Molecule `O=C(N[C@H]1CC[C@H](n2c(=O)[nH]c3ccccc3c2=O)CC1)c1ccc2c(c1)nc(-c1ccoc1)n2C1CCCCC1` [Entry 1199] registered an IC50 under setting [1] of 10 to 25 µM.
Regarding `Nc1nc([C@H](Cc2ccc(-c3nnn[nH]3)cc2)NC(=O)c2ccc3c(c2)nc(-c2ccoc2)n3C2CCCCC2)cs1` [Entry 16059], the IC50 (IC50, Table 16) is less than 1 µM.
Under “IC50, Table 11”, `O=C(O)c1ccc2[nH]cc(C[C@H](NC(=O)c3ccc4c(c3)nc(-c3ccoc3)n4C3CCCCC3)C(=O)O)c2c1` [Entry 11018, 3-((S)-2-Carboxy-2-{[1-(1-cyclohexyl-2-furan-3-yl-1H-benzoimidazol-5-yl)-methanoyl]-amino}-ethyl)-1H-indole-5-carboxylic Acid] yielded an IC50 of less than 1 µM.
In the case of `O=C(N[C@H](C(=O)O)[C@@H](O)c1ccc(-c2nnn[nH]2)cc1)c1ccc2c(c1)nc(-c1ccoc1)n2C1CCCCC1` [Entry 18002], the IC50 (IC50, Table 18) was less than 1 µM.
On to `NC(=O)Nc1ccc2[nH]cc(C[C@H](NC(=O)c3ccc4c(c3)nc(-c3ccoc3)n4C3CCCCC3)C(N)=O)c2c1` [Entry 13013, 1-Cyclohexyl-2-furan-3-yl-1H-benzimidazole-5-carboxylic Acid [(S)-1-Carbamoyl-2-(5-ureido-1H-indol-3-yl)-ethyl]-amide], for which the half-maximal inhibitory concentration (IC50) (IC50, Table 13) was less than 1 µM.
For `O=C(O)CNc1ccc(C[C@H](NC(=O)c2ccc3c(c2)nc(-c2ccoc2)n3C2CCCCC2)C(=O)O)cc1` [Entry 16010, (S)-3-[4-(Carboxymethylamino)phenyl]-2-{[1-(1-cyclohexyl-2-furan-3-yl-1H-benzoimidazol-5-yl)-methanoyl]-amino}-propionic Acid], the IC50 (IC50, Table 16) was less than 1 µM.
For the molecule `CN(C)c1nc([C@H](Cc2c[nH]c3ccc(O)cc23)NC(=O)c2ccc3c(c2)nc(-c2ccoc2)n3C2CCCCC2)cs1` [Entry 14005, 1-Cyclohexyl-2-furan-3-yl-1H-benzimidazole-5-carboxylic Acid [(S)-1-(2-Dimethylamino-thiazol-4-yl)-2-(5-hydroxy-1H-indol-3-yl)-ethyl]-amide], the IC50 (IC50, Table 14) is less than 1 µM.
As to `O=C(O)CNC(=O)c1ccc2c(c1)nc(-c1ccccn1)n2C1CCCCC1` [Entry 2016], the IC50 (IC50 μM, Table 2) was in the range of 10 to 25 µM.
As to `O=C(O)CNC(=O)N1CCC(CNC(=O)c2ccc3c(c2)nc(-c2ccoc2)n3C2CCCCC2)CC1` [Entry 1192], the IC50 under setting [1] was 10 to 25 µM.
In the case of `Cc1cc2c(cc1C(=O)N[C@@H](Cc1c[nH]c3ccc(OCC(=O)O)cc13)C(=O)O)nc(-c1ccoc1)n2C1CCCCC1` [Entry 5009, (S)-3-(5-Carboxymethoxy-1H-indol-3-yl)-2-{[1-(1-cyclohexyl-2-furan-3-yl-6-methyl-1H-benzimidazol-5-yl)-methanoyl]-amino}-propionic Acid], the IC50 (IC50 μM, Table 5) is 1 to 5 µM.
With `CC(C)(CC(=O)O)C(=O)N[C@H]1CC[C@H](NC(=O)c2ccc3c(c2)nc(-c2ccoc2)n3C2CCCCC2)CC1` [Entry 1227], the IC50 under setting [1] fell in the range of 10 to 25 µM.
`Cn1ccnc1-c1nc2cc(C(=O)N[C@@H](Cc3c[nH]c4ccc(O)cc34)C(=O)O)ccc2n1C1CCCCC1` [Entry 12009]: the IC50 (IC50, Table 12) is less than 1 µM.
For the setting “IC50 μM, Table 7”, `Cc1ccc(-c2nc3cc(C(=O)O)ccc3n2C2CCCCC2)s1` [Entry 7010] had an IC50 of 10 to 25 µM.
`COc1ccc(CNC(=O)c2ccc3c(c2)nc(-c2cccc(C)n2)n3C2CCCCC2)cc1OC` [Entry 2015] registered an IC50 (IC50 μM, Table 2) of 10 to 25 µM.
For the molecule `CNc1nc([C@H](Cc2ccc(O)cc2)NC(=O)c2ccc3c(c2)nc(-c2ccoc2)n3C2CCCCC2)cs1` [Entry 1240, 1-Cyclohexyl-2-furan-3-yl-1H-benzimidazole-5-carboxylic Acid [(S)-2-(4-Hydroxy-phenyl)-1-(2-methylamino-thiazol-4-yl)-ethyl]-amide], the IC50 under setting [1] was in the range of 1 to 5 µM.
On to `O=C(O)COc1ccc2[nH]cc(CC(NC(=O)c3ccc4c(c3)nc(-c3ccoc3)n4C3CCCCC3)C(=O)O)c2c1` (stereo not shown) [Entry 11014], for which the IC50 (IC50, Table 11) was less than 1 µM.
Under setting [1], `O=C(N[C@@H](Cc1ccc(O)cc1)C(=O)Nc1cccnc1)c1ccc2c(c1)nc(-c1ccoc1)n2C1CCCCC1` [Entry 1111] yielded an IC50 of 1 to 5 µM.
Consider `O=C(N[C@@H](Cc1c[nH]c2ccc(O)cc12)C(=O)O)c1cnc2c(c1)nc(-c1ccccn1)n2C1CCCCC1` [Entry 4001], for which the IC50 (IC50 μM, Table 4) was less than 1 µM.
On to `C[C@@H](O)[C@H](NC(=O)c1ccc2c(c1)nc(-c1ccccn1)n2C1CCCCC1)C(=O)O` [Entry 2019], for which, for the setting “IC50 μM, Table 2”, the IC50 was 10 to 25 µM.
Regarding `O=C(O)COc1ccc(CN2CCCC(NC(=O)c3ccc4c(c3)nc(-c3ccoc3)n4C3CCCCC3)C2)cc1` (stereo not shown) [Entry 1285], the IC50 under setting [1] fell in the range of 5 to 10 µM.
The molecule `O=C(N[C@@H](Cc1c[nH]c2ccc(O)cc12)C(=O)O)c1ccc2c(c1)nc(-c1ccccc1)n2C1CCCCC1` [Entry 2139] came in with an IC50 (IC50 μM, Table 2) of less than 1 µM.
Under “IC50 μM, Table 2”, `N#Cc1ccccc1-c1nc2cc(C(=O)N[C@@H](Cc3c[nH]c4ccc(O)cc34)C(=O)O)ccc2n1C1CCCCC1` [Entry 2091] registered an IC50 of 1 to 5 µM.
`CN(C)c1nc([C@H](Cc2ccc(O)cc2)NC(=O)c2ccc3c(c2)nc(-c2ccoc2)n3C2CCCCC2)cs1` [Entry 1241, 1-Cyclohexyl-2-furan-3-yl-1H-benzimidazole-5-carboxylic Acid [(S)-1-(2-Dimethylamino-thiazol-4-yl)-2-(4-hydroxy-phenyl)-ethyl]-amide]: the IC50 under setting [1] was in the range of 1 to 5 µM.
On the same count and under the same terms, as for `O=C(O)CCNC(=O)N1CCC(CNC(=O)c2ccc3c(c2)nc(-c2ccoc2)n3C2CCCCC2)CC1` [Entry 1211], the figure is 10 to 25 µM.
In turn, `Nc1nc([C@H](Cc2c[nH]c3ccc(O)cc23)NC(=O)c2ccc3c(c2)nc(-c2ccoc2)n3C2CCCCC2)cs1` [Entry 14002, 1-Cyclohexyl-2-furan-3-yl-1H-benzimidazole-5-carboxylic Acid [(S)-1-(2-Amino-thiazol-4-yl)-2-(5-hydroxy-1H-indol-3-yl)-ethyl]-amide] came in with an IC50 (IC50, Table 14) of less than 1 µM.
In the case of `CCOc1cc(C(C)NC(=O)c2ccc3c(c2)nc(-c2ccccn2)n3C2CCCCC2)ccc1OC` (stereo not shown) [Entry 2043], the IC50 (IC50 μM, Table 2) was in the range of 5 to 10 µM.
As to `O=C(NC1CCCC(NCc2ccccc2C(=O)O)C1)c1ccc2c(c1)nc(-c1ccoc1)n2C1CCCCC1` (stereo not shown) [Entry 1268], under setting [1], the IC50 was in the range of 10 to 25 µM.
Consider `O=C(N[C@@H](Cc1ccc(O)cc1)C(=O)NCc1ccncc1)c1ccc2c(c1)nc(-c1ccoc1)n2C1CCCCC1` [Entry 1112], for which, under setting [1], the 50% inhibitory concentration (IC50) lay within 1 to 5 µM.
Take `CC(C)n1c(-c2ccoc2)nc2cc(C(=O)N[C@@H](Cc3c[nH]c4ccc(O)cc34)C(N)=O)ccc21` [Entry 3040]: for the setting “IC50 μM, Table 3”, the IC50 was 1 to 5 µM.
Molecule `CC(CC(=O)Nc1cc(C(=O)O)ccc1O)NC(=O)c1ccc2c(c1)nc(-c1ccoc1)n2C1CCCCC1` (stereo not shown) [Entry 1167] returned an IC50 under setting [1] of 1 to 5 µM.
Same read-out and setting: as for `COC(=O)COc1ccc(C[C@H](NC(=O)c2ccc3c(c2)nc(-c2ccoc2)n3C2CCCCC2)C(=O)O)cc1` [Entry 1124, (S)-2-{[1-(1-Cyclohexyl-2-furan-3-yl-1H-benzimidazol-5-yl)-methanoyl]-amino}-3-(4-methoxycarbonylmethoxy-phenyl)-propionic Acid], the figure is 1 to 5 µM.
The same measure, in the same setting: the figure for `COC(=O)[C@H](Cc1ccc(C(N)=O)cc1)NC(=O)c1ccc2c(c1)nc(-c1ccoc1)n2C1CCCCC1` [Entry 1086] is 1 to 5 µM.
Still for that read-out and setting: as for `O=C(NC(Cc1ccc(O)cc1)c1ccccc1)c1ccc2c(c1)nc(-c1ccoc1)n2C1CCCCC1` (racemic) [Entry 1259, 1-Cyclohexyl-2-furan-3-yl-1H-benzimidazole-5-carboxylic Acid [2-(4-hydroxy-phenyl)-1-phenyl-ethyl]-amide], the figure is 5 to 10 µM.
Under setting [1], `C[C@H](NC(=O)c1ccc2c(c1)nc(-c1ccoc1)n2C1CCCCC1)[C@@H](O)c1ccc(OCC(=O)O)cc1` [Entry 1119] returned an IC50 of 1 to 5 µM.
In turn, `O=C(O)c1cccc(CN2CCC(NC(=O)c3ccc4c(c3)nc(-c3ccoc3)n4C3CCCCC3)CC2)c1` [Entry 1292] returned an IC50 under setting [1] of 10 to 25 µM.
For the molecule `O=C(O)COc1ccc(CN2CCC(NC(=O)c3ccc4c(c3)nc(-c3ccoc3)n4C3CCCCC3)C2)cc1` (stereo not shown) [Entry 1282], under setting [1], the IC50 lay within 5 to 10 µM.
As to `O=C(O)CCc1cccc(NC(=O)c2ccc3c(c2)nc(-c2ccoc2)n3C2CCCCC2)c1` [Entry 1237], under setting [1], the IC50 lay within 5 to 10 µM.

Source of the values: US6448281B1 (Boehringer Ingelheim (Canada) Ltd., priority 2000, dated 2002).
